{"source": "PubChem BioAssay AID1030", "about": "(National Center for Advancing Translational Sciences (NCATS), 2008)", "note": "Out of some 220,000 compounds screened, about 16,000 (7.3%) were called active. The shares of active, inactive and inconclusive entries below differ from those in the screen. Calls follow the shape of the dose curve; as a rule, active = well fitted inhibition curve with a large enough effect (not every such curve was filed as active); inconclusive = small, poorly fitted or top-dose-only effect, or another doubt; inactive = no such curve, though single readings can be large or run the other way. Potencies of inconclusive entries are left out as doubtful fits. Potency is read from the fitted curve at half-maximal effect; tags tell the direction and shape of the fitted curve."}
{"biological_target": "Aldehyde dehydrogenase 1A1 (Homo sapiens) (UniProt P00352)", "sequence (P00352 whole entry, looked up)": "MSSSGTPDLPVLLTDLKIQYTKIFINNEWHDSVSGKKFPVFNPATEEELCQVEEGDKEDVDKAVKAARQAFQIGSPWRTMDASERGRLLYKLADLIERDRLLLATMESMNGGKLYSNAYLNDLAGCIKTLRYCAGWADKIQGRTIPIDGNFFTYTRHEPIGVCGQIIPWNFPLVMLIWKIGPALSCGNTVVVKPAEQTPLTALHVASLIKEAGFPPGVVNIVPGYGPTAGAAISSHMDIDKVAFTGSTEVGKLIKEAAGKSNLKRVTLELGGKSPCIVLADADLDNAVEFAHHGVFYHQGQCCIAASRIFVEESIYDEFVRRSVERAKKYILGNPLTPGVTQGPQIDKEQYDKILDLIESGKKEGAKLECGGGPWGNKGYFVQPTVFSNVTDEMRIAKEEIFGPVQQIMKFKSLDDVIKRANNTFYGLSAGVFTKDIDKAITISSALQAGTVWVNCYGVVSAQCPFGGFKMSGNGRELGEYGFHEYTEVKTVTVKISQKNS", "assay": "qHTS Assay for Inhibitors of Aldehyde Dehydrogenase 1 (ALDH1A1)", "settings": "Purified ALDH1A1, NADH fluorescence, propionaldehyde substrate; series mostly up to 75.3 µM"}
{"compound": "Cc1ccccc1-c1cncnc1N1CCN(C)CC1", "Potency": "inconclusive [inhibitor, single point]"}
{"compound": "Cc1c(Cl)cccc1NC(=O)CC1SCCNC1=O", "note": "(configuration not stated)", "Potency": "inactive"}
{"compound": "O=C(Nc1ccccc1)NC1(C(=O)NCCCN2CCOCC2)CCCCC1", "Potency": "inactive"}
{"compound": "COc1ccc(C(=O)[C@H](Br)[C@H](Br)C(=O)O)cc1", "Potency": "active: 0.282 µM"}
{"compound": "Cc1nc2ncnn2c(C)c1C/C=C/c1ccccc1", "Potency": "inactive"}
{"compound": "O=C(CN1CCN(CC(=O)Nc2ccccc2C(F)(F)F)CC1)Nc1ccccc1F", "Potency": "active: 25.1 µM"}
{"compound": "COC(=O)C1=CNC=C(C(=O)OC)C1c1ccccc1Cl", "Potency": "inconclusive [inhibitor, partial curve]"}
{"compound": "CC(CCc1ccccc1)NC(=O)COc1cc(F)ccc1[N+](=O)[O-]", "note": "(configuration not stated)", "Potency": "inconclusive [inhibitor, single point]"}
{"compound": "O=S(=O)(NCCc1csc(-c2cccnc2)n1)c1cccs1", "Potency": "inconclusive [inhibitor, single point]"}
{"compound": "Cc1nc(Sc2nnnn2-c2ccccc2)c(C#N)c(C)c1C", "Potency": "inconclusive [inhibitor, single point]"}
{"compound": "CC(CCc1ccccc1)NC(=O)Cc1cccs1", "note": "(configuration not stated)", "Potency": "inactive"}
{"compound": "Cc1ccc(NC(=O)c2ccc(N3CCOCC3)c([N+](=O)[O-])c2)cc1S(=O)(=O)N1CCOCC1", "Potency": "inconclusive [inhibitor, single point]"}
{"compound": "COc1ccc(OC)c(-c2c3cc(O)c(=O)cc-3oc3cc(O)c(O)cc23)c1", "Potency": "inconclusive [inhibitor, single point]"}
{"compound": "COc1ccc2nc(N3CCC(C)CC3)c(C#N)cc2c1", "Potency": "inconclusive [inhibitor, single point]"}
{"compound": "COc1ccc2[nH]c(=O)c(CN(CCc3ccccc3)C(C)=O)cc2c1", "Potency": "inconclusive [inhibitor, partial curve]"}
{"compound": "CC(C)(C)n1nc2c(c1NC(=O)c1ccc(S(=O)(=O)N3CCCCC3)cc1)CS(=O)C2", "note": "(configuration not stated)", "Potency": "active: 25.1 µM"}
{"compound": "Cc1cc(C)n(C(=O)CNc2ccc(C)c(C)c2)n1", "Potency": "active: 25.1 µM"}
{"compound": "CCO[C@@H]1OC(C(=O)Nc2ccccc2)=C[C@H](c2ccccc2)[C@H]1CCCO", "Potency": "inactive"}
{"compound": "COc1ccccc1OCc1ccc(C(=O)NCC2CCCO2)o1", "note": "(configuration not stated)", "Potency": "inconclusive [inhibitor, single point]"}
{"compound": "Cc1cc(OI)c(C(C)C)cc1-c1cc(C(C)C)c(OI)cc1C", "Potency": "inactive"}
{"compound": "Cc1noc(C)c1-c1nccc(NCCN2CCOCC2)n1", "Potency": "inconclusive [inhibitor, single point]"}
{"compound": "O=C(Nc1ccc(C(=O)N2CCOCC2)cc1)Nc1cccc(Cl)c1", "Potency": "inactive"}
{"compound": "CCOC(=O)CSc1nnc(CNC(=O)c2ccc(OC)cc2)n1C1CCCCC1", "Potency": "inactive"}
{"compound": "COc1ccccc1/C=N/NC(=O)c1ccc(Cn2nc([N+](=O)[O-])cc2C)cc1", "Potency": "active: 14.1 µM"}
{"compound": "c1ccc2c(c1)NC1(CCCC1)n1c-2nc2ccccc21", "Potency": "inconclusive [inhibitor, partial curve]"}
{"compound": "Cc1cc(C(=O)COC(=O)C2=COCCO2)c(C)n1-c1ccc2c(c1)OCO2", "Potency": "active: 15.8 µM"}
{"compound": "CC1(C)CC(=O)C(=C2SCCCS2)C(=O)C1", "Potency": "inconclusive [inhibitor, single point]"}
{"compound": "CC(CCc1ccccc1)NC(=O)COC(=O)C12CC3CC(CC(Br)(C3)C1)C2", "note": "(configuration not stated)", "Potency": "inconclusive [inhibitor, partial curve]"}
{"compound": "COCc1cc(C)n(CC(=O)NC(C)c2ccccc2)c(=O)c1C#N", "note": "(configuration not stated)", "Potency": "inconclusive [inhibitor, partial curve]"}
{"compound": "Cc1ccc(S(=O)(=O)NC2=C(N3CCN(Cc4ccccc4)CC3)C(=O)c3ccccc3C2=O)cc1", "Potency": "inactive"}
{"compound": "Cc1cc(=O)oc2ccc(OCC(=O)N3CCC(C)CC3)cc12", "Potency": "inconclusive [inhibitor, partial curve]"}
{"compound": "CN(C)CCOC(=O)CC12CC3CC(C1)CC(CC(=O)OCCN(C)C)(C3)C2", "Potency": "inconclusive [inhibitor, partial curve, poor fit]"}
{"compound": "O=C1/C(=C/c2cccnc2)SC(=S)N1c1ccc(F)cc1", "Potency": "inconclusive [inhibitor, single point]"}
{"compound": "O=C(NCCSc1ccccc1)c1ccccc1", "Potency": "inactive"}
{"compound": "Cn1c(=O)c(NCCc2ccccc2)c2c3c(cccc31)C(=O)c1ccccc1-2", "Potency": "inactive"}
{"compound": "Cc1cccc(CNc2cc(-c3ccccc3CN(C)C)ncn2)c1", "Potency": "inactive"}
{"compound": "NC(=O)COC(=O)CNC(=O)c1ccc(Cl)cc1", "Potency": "active: 2 µM"}
{"compound": "O=Cc1ccc(OCc2nnsc2Cl)cc1", "Potency": "inconclusive [inhibitor, single point]"}
{"compound": "COc1ccc(/C=N/n2cc(-c3ccccc3)nc2N)cc1", "Potency": "inconclusive [inhibitor, single point]"}
{"compound": "COc1cccc(-c2csc(N3CCN(C(=S)Nc4ccc(Cl)cc4)CC3)n2)c1", "Potency": "active: 0.0891 µM"}
{"compound": "O=C(CSc1nnc(-c2ccccc2)n1Cc1ccco1)Nc1ccc(S(=O)(=O)N2CCCC2)cc1", "Potency": "inconclusive [inhibitor, single point]"}
{"compound": "O=C(CSc1nnc(C2COc3ccccc3O2)o1)N1CCCC1", "note": "(configuration not stated)", "Potency": "inconclusive [inhibitor, single point]"}
{"compound": "CCOC(=O)C1=NOC(C(=O)NN(C)c2ncc(C(F)(F)F)cc2Cl)C1", "note": "(configuration not stated)", "Potency": "inactive"}
{"compound": "CC(C)(C)S(=O)(=O)c1cnc2c(S(=O)(=O)c3ccccc3)cnn2c1N", "Potency": "inconclusive [inhibitor, single point]"}
{"compound": "O=C(O)c1cc(-c2ccc(/C=N/NC(=S)Nc3ccccc3)o2)ccc1Cl", "Potency": "inconclusive [inhibitor, single point]"}
{"compound": "COc1cccc(NC(=O)CN2CCSc3ccccc32)c1", "Potency": "active: 18.9 µM"}
{"compound": "CC(C)C[C@@H](CC(=O)N[C@H](CC(=O)N[C@@H]1CCCC[C@H]1C(=O)N[C@H](CC(=O)N[C@@H](CCC(=O)O)CC(=O)O)CC(C)C)C(C)C)NC(=O)[C@@H]1CCCC[C@H]1N", "Potency": "inconclusive [inhibitor, single point]"}
